Among all 310,000 compounds or so, about 2,200 (0.71%) showed an effect of 50% or more. Effects have a minus sign here. The list shows a part of the results.
Target: human ether-à-go-go-related gene (hERG) potassium channel (human, UniProt Q12809)
Assay: primary screen, population patch clamp on CHO cells stably expressing hERG

human ether-à-go-go-related gene (hERG) potassium channel, sequence (Q12809 whole entry, looked up): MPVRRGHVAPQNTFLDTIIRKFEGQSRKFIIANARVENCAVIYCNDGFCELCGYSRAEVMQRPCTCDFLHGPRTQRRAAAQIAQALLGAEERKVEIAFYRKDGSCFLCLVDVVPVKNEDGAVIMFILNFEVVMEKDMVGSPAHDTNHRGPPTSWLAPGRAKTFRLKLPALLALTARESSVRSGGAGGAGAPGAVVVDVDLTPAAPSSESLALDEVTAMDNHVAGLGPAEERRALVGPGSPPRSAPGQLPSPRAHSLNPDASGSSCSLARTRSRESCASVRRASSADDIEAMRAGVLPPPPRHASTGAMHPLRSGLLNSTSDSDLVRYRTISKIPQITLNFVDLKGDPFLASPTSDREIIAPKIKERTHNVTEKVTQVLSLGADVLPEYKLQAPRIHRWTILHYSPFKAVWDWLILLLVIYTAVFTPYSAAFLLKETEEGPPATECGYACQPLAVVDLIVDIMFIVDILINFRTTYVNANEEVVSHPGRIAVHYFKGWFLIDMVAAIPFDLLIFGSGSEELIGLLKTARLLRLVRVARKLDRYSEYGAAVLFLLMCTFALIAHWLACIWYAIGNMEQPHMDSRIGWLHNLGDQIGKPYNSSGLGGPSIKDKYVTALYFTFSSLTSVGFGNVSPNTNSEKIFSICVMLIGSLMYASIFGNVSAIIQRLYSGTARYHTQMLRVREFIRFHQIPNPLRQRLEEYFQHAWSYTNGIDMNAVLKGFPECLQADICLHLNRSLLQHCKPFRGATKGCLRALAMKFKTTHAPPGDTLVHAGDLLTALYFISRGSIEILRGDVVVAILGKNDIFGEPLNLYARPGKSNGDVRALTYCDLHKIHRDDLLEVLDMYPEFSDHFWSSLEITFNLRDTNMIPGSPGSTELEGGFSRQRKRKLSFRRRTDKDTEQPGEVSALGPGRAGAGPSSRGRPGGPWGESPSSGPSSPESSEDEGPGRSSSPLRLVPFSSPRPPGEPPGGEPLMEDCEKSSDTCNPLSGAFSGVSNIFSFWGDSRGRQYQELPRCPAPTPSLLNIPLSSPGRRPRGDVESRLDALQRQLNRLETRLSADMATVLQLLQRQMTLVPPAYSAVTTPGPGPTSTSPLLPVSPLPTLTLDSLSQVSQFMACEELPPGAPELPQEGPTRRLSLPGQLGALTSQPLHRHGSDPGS

SMILES | hERG current change (%, negative = inhibition) at 1uM
COC(=O)[C@@]1(Cc2ccc(F)cc2)[C@H]2c3cc(C(=O)N(C)C)n(Cc4ccccn4)c3C[C@H]2CN1C(=O)c1ccccc1 | 9.55%
CCc1ccccc1NC(=O)CNC(=O)c1cc(C2CC2)nn1-c1ccccc1 | 4.19%
O=C(Nc1cccc(F)c1)NC1CCCCC1 | 13.7%
CCOC(=O)c1[nH]c(C)c(C(=O)OCC(=O)NC(=O)NC(C)(C)C)c1C | 19.7%
Cc1ccc(Cl)cc1N1CCN(CC(O)COC(C)C)CC1.Cl (stereo not drawn) | -44.6%
CC(C)Cc1cc(C(C)(C)C)ccc1OC(=S)N(C)C | 15.1%
CCCCc1c(O)nc2sccn2c1=O | 5.53%
CN(C(=O)C1CCOC1)c1nnc(-c2ccccn2)s1 (stereo not drawn) | 1.86%
C=CCNCCCCOc1ccccc1.O=C(O)C(=O)O | 5.06%
O=P1(NCCCl)OCCCN1CCCl (stereo not drawn) | 8.75%
CN1CCN(Cc2cn(C)nc2-c2ccccc2F)CC1c1ccccc1 (stereo not drawn) | 12.6%
CC(C(=O)NCCc1ccc(F)cc1)N1CCN(Cc2ccccc2)CC1 (stereo not drawn) | 5.75%
O=[N+]([O-])c1ccc2[nH]c3c(c2c1)CCCC3O (stereo not drawn) | 20.1%
COc1ccc(CNC(=O)COC(=O)c2ccc3c(c2)OCCO3)cc1 | 17.1%
O=C(Nc1cccc2c1CCCC2)c1ccco1 | 7.18%
N#Cc1ccc(C2=NC(C(F)(F)F)(C(F)(F)F)c3c(n(Cc4ccco4)c(=O)[nH]c3=O)N2)cc1 | 5.53%
Cn1[nH]c(-c2ccccc2)c(/C=N/O)c1=O | 13.3%
O=C(NCCN1CCOCC1)C1CCC(=O)N1Cc1ccccc1Cl (stereo not drawn) | 4.73%
C[n+]1c(-c2ccccc2)cc(CCCCc2cc(-c3ccccc3)[n+](C)c(-c3ccccc3)c2)cc1-c1ccccc1.[O-][Cl+3]([O-])([O-])[O-] | 9.12%
CCOC(=O)N[C@H](Cc1c[nH]c2ccccc12)C(=O)NC1CC1 | 15.5%
CCOc1ccccc1C(=O)Nc1ccc2c(c1)C(=O)NC2=O | 20.9%
CN(CC(=O)Nc1ccccc1Br)c1ncnc2sccc12 | 16.4%
Cc1nc(SCC(=O)Nc2cc(S(=O)(=O)N3CCOCC3)ccc2Cl)nc(C)c1C | -20.3%

SMILES | hERG current change (%, negative = inhibition) at 1uM
CC(=O)NC(CC(=O)OCC(=O)N1CCN(S(=O)(=O)c2ccc(Cl)cc2)CC1)c1ccccc1 (stereo not drawn) | 8.82%
CCOC(=O)c1c(C)[nH]c(C)c1C(=O)COC(=O)c1cccc(C)c1O | 6.31%
CC(C)(O)c1[nH]c2cc(F)ccc2c1C(C)(C)O | 5.5%
O=S(=O)(c1ccccc1)c1nc(-c2ccco2)oc1NCc1cccnc1 | 8.49%
COc1cccc(N2CCN(C3CC(=O)N(c4ccc(F)c(Cl)c4)C3=O)CC2)c1 (stereo not drawn) | 5.76%
Cc1ccccc1OCC(=O)OCC(=O)NCc1ccccc1 | 10.3%
O=C(C1CC(c2ccccc2O)=NO1)N1CCCCC1 (stereo not drawn) | 13.1%
Cc1ccc(NC(=O)CN2C(=O)C3CC=CCC3C2=O)cc1S(=O)(=O)N1CCOCC1 (stereo not drawn) | 9.81%
CCn1cc(CNC(=O)c2cc(COc3ccc(F)cc3Cl)on2)cn1 | -2.63%
O=C(/C=C/N1CCOCC1)c1coc2ccccc12 | 5.07%
COc1cc(C2SCC(=O)N2Cc2ccccc2)ccc1O (stereo not drawn) | 11.9%
COc1ccc(CCNC(=O)Cn2cccc2C(=O)c2ccccc2C)cc1OC | -8.44%
Cc1c(O)nc(SC2CC(=O)N(c3cc(Cl)cc(Cl)c3)C2=O)[nH]c1=O (stereo not drawn) | 16.5%
COc1ccc(NC(=O)C2CCCN(S(=O)(=O)c3ccc4[nH]c(=O)ccc4c3)C2)cc1OC (stereo not drawn) | 19.6%
Cc1ccc(C(=O)Nn2cnnc2)cc1 | 11%
CCOc1ccc(/C=N/N2C(C)CCCC2C)cc1OC (stereo not drawn) | 10.2%
CCc1ccc(CN(C)CC(=O)Nc2sccc2C#N)cc1 | 1.93%
Cc1ccc(-c2nc(CS(=O)CC(=O)N3CCC4(CC3)OCCO4)c(C)o2)cc1 (stereo not drawn) | -3.05%
O=C(C1CCC(CNS(=O)(=O)c2ccccc2)CC1)N1CCCCC1 (stereo not drawn) | 8.49%
O=C1CCCC/C1=C/NCc1ccccc1 | 14.5%
CN(c1c[nH]c(=O)[nH]c1=O)C1CCCCC1 | 23.7%
CNS(=O)(=O)c1ccc(NC(=O)c2cncc(Br)c2)cc1 | 8.93%

— publication PMC4336329 (PLoS ONE, 2015)
